Source: PubChem BioAssay AID1346428 (National Center for Advancing Translational Sciences (NCATS), 2018)
Several values for one entry are separate records, joined by “and”; a condition that tells them apart may be missing. Equal values may be shown once. The whole screen tested about 48,000 compounds, of which about 1,200 (2.5%) were called active. Not shown: some 2% with an inconclusive outcome.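 How the source made its calls: active means activation of at least 60% and not above a set upper limit (about 1 call in 100 departs from these limits); inconclusive means activation of 40% to 60%, or above that upper limit; inactive means activation under 40%.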 This is one part of the list.

Molecular target: Probable G-protein coupled receptor 32 (Homo sapiens) (UniProt O75388)
UniProt O75388, sequence (O75388 whole entry, looked up): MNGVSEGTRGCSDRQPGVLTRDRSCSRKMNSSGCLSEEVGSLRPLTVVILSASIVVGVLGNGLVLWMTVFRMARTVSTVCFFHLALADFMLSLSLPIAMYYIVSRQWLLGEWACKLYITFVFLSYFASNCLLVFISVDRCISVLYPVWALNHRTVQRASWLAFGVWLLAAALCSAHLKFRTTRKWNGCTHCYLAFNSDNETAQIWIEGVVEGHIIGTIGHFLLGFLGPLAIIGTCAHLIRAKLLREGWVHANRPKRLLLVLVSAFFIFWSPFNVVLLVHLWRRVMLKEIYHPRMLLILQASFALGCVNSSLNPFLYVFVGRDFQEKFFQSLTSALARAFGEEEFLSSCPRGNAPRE
Assay: qHTS for Agonists of Human Resolvin D1 Receptor DRV1; further: 0% is about no effect
Details: CHO-K1 GPR32 beta-arrestin PathHunter luminescence, 90 min; at 76.9 µM; hits give high values; zero percent set by DMSO-only wells
Summary of the method: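 GPR32 activation in stably transfected CHO-K1 cells, detected as beta-arrestin recruitment by enzyme-fragment complementation. Compound exposure: 90 min, 37 °C.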

SMILES	activation
COc1ccc(-c2c3c(=O)n(C)c(=O)n(C)c3c3c(-c4cccc(C)c4)nc4ccccc4n23)cc1	inactive: -25%
C=CCc1cccc(C=NNC(=O)CN2CCN(Cc3ccccc3)CC2)c1O	inactive: -13.8%
COc1ccc2cc3cc(C(=O)N4CCN(c5cccc(Cl)c5)CC4)sc3nc2c1	inactive: -14.4%
COc1ccc(NS(=O)(=O)c2ccc3c(c2)CCN3C(=O)CCC(=O)O)cc1Cl	inactive: 9.06%
CCOc1ccc(NC(=O)Cn2cc(C(=O)c3ccc(CC)cc3)c(=O)c3cc(OC)c(OC)cc32)cc1	inactive: 21.8%
COc1ccc(S(=O)(=O)NCCCO)cc1-c1nnc2c3ccccc3c(C)nn12	inactive: -2.91%
CC(C)CCNC(=O)CSc1nc2ccccc2nc1Cc1ccccc1	inactive: 30%
CCOC(=O)c1ccc2c(c1)N(C(CC)C(=O)Nc1ccccc1OC)C(=O)c1ccccc1S2 (centres undefined)	inactive: -10.6%
Cc1ccc(NC(=O)Cn2nc(-c3ccncc3)ccc2=O)cc1Cl	inactive: 3.72%
CCc1ccc(-n2c(=O)c3sc4ccccc4c3n(CC(=O)NC3CCCCC3)c2=O)cc1	inactive: 3.71%
Cc1cc(NC(=O)CCS(=O)(=O)c2cc(Br)cc3c2N(C(=O)C2CC2)CC3)ccc1Br	inactive: -4.27%
CCOC(=O)c1nc(Nc2ccc(C(C)=O)cc2)c2ccccc2n1	inactive: -28.5%
COc1cc2c(cc1OC)C(COc1ccc3c(C)cc(=O)oc3c1)N(C(=O)C(C)C)CC2 (centres undefined)	inactive: -6.9%
COc1ccc(Cn2c(=O)c3cccnc3n(CC(=O)Nc3ccc(C)c(F)c3)c2=O)cc1	inactive: -12.7%
Cn1ccc2cc3c(cc21)CCN3C(=O)Nc1cccnc1	inactive: 3.3% and inactive: -6.23%
O=C(Nc1c(C(=O)Nc2ccc(F)cc2)oc2ccccc12)c1cc2ccccc2o1	inactive: 0.797%
Cc1ccc(C)c(CN2CCC(CNC(=O)Nc3ccc(Br)cc3F)CC2)c1	inactive: 18.6%
Cc1ccc(C)c(CNC(=O)c2ccc3c(c2)nc2n3CCCCC2)c1	inactive: -13.1%
Cc1cc(Oc2c(C(F)(F)F)oc3c(CN4CCC(C)CC4)c(O)ccc3c2=O)cc(C)c1Cl	inactive: 4.87%
O=C(Cn1c(=O)oc2cc(S(=O)(=O)N3CCCCCC3)ccc21)NCc1ccccc1Cl	inactive: 38.3%
Cc1cccc(-n2ccnc2SCC(=O)Nc2ccc(F)cc2F)c1C	inactive: 26.9%

SMILES	activation
COc1cccc(Cn2c(Oc3cc(C)cc(C)c3)nc3c2c(=O)n(C)c(=O)n3C)c1	inactive: -13%
COc1ccc(CC(=O)N2CCc3cc(OC)c(OC)cc3C2COc2cc(C)cc(C)c2)cc1OC (centres undefined)	inactive: -13.3%
CCc1ccc(S(=O)(=O)N(C(=O)c2ccncc2)c2ccc3oc(C)c(C(=O)OC)c3c2)cc1	inactive: 2.23%
Cc1cc(C)cc(NC(=O)CCS(=O)(=O)c2cccc3nsnc23)c1	inactive: -4.1%
CCOC(=O)c1ccc(N2C(=O)c3n[nH]c(-c4ccco4)c3C2c2ccc(C)cc2)cc1 (centres undefined)	inactive: 14.6%
Cc1nn(S(=O)(=O)c2ccc(Br)cc2)c(C)c1S(=O)(=O)N1CCCCCC1	inactive: 20.9%
CCOc1ccc(CCNC(=O)CN2CCN(Cc3ccc(Cl)cc3)C2=O)cc1OCC	inactive: 17.5%
CC(=O)c1ccc(NS(=O)(=O)c2cccc(S(=O)(=O)c3ccc(Cl)cc3)c2)cc1	active: 61.4%
Cc1cccc(NC(=O)CSc2ccc(-c3ccccn3)nn2)c1	inactive: 4.67%
Cc1cccc(C)c1Nc1nn2c(=O)c3cc4c(cc3nc2s1)OCO4	inactive: 24.6%
CCc1ccc(N(CC)C(=O)c2cc3c(=O)oc4ccc(C)cc4c3s2)cc1	inactive: 35.7%
COc1cccc(NC(=O)C(=O)NCC(c2ccc3c(c2)OCO3)N2CCN(C)CC2)c1 (centres undefined)	inactive: -7.83%
COc1cccc(C(=O)Nc2cccc(OCc3cc(=O)n4c5c(sc4n3)CCCC5)c2)c1	inactive: -1.81%
CC(=O)Nc1ccc(NS(=O)(=O)c2c(C(=O)N3CCC(C)CC3)c(C)n(C)c2C)cc1	inactive: -12.9%
CCc1ccc(-c2cn3c(n2)sc2cc(C(=O)NC4CCCCC4)ccc23)cc1	inactive: 11.5%
COc1cccc(-c2nc(S(=O)(=O)c3ccc(Cl)cc3)c(NCc3ccccc3)o2)c1	inactive: -17%
COc1ccc(NC(=O)CCCSc2nc(-c3ccco3)cc(C(F)(F)F)n2)cc1OC	inactive: 16.7%
CCCCN(CC)CCCNC(=O)c1cc2c(=O)[nH]c3ccccc3c2n1C	inactive: -4.5%
COCCNc1oc(-c2ccccc2)nc1S(=O)(=O)c1ccc(Br)cc1	inactive: -25.5%
COc1ccc2oc(=O)c(C(=O)NCCc3c(C)[nH]c4ccc(F)cc34)cc2c1	inactive: 37.4%
O=c1c(-c2cc(-c3ccccc3)nc3c2COc2ccc(Cl)cc2-3)coc2ccc(F)cc12	inactive: -7.44%

SMILES	activation
O=C(Nc1nc2n(n1)C(c1ccc(F)cc1)C=C(c1ccccc1)N2)c1ccco1 (centres undefined)	inactive: 2.58%
Cc1c(Cl)cccc1NC(=O)c1ccc2c(c1)CCN2S(=O)(=O)c1ccccc1	inactive: -8.13%
Cc1c(C(=O)Nc2ccc(C(=O)O)cc2)nnn1-c1ccccc1	inactive: -11.6%
Cc1ccc(CN2CCCN(CC(=O)Nc3ccc(C)cc3C)S2(=O)=O)cc1	inactive: -2.92%
CSc1ccc(CCNC(=O)Cn2ccc3cc(S(=O)(=O)N4CCCCCC4)ccc32)cc1	inactive: 8.71%
CCCCSc1nnc2c(n1)OC(c1ccc(Br)s1)N(C(C)=O)c1ccccc1-2 (centres undefined)	inactive: -13.7%
CN(C)c1ccc(C(CNC(=O)c2ccccc2C(F)(F)F)N2CCOCC2)cc1 (centres undefined)	inactive: -9.74%
NC1CCN(c2nc3c(cc2F)c(=O)c(C(=O)O)cn3-c2ccc(F)cc2F)C1 (centres undefined)	inactive: -7.63%
CN(C)CCNc1ncnc2c1cnn2-c1cccc(Cl)c1	active: 87.2%
COc1ccc(CNC(=O)C2CCCN(S(=O)(=O)c3cccc4nsnc34)C2)cc1 (centres undefined)	inactive: 2.79%
CCOc1ccccc1-c1noc(CSc2nnc(-c3ccccc3)n2-c2ccc(F)cc2)n1	inactive: -11%
Nc1c(C(=O)Nc2ccc(OC(F)(F)F)cc2)sc2nc(-c3ccncc3)ccc12	inactive: -20%
Cc1nn2c(=O)cc(COC(=O)Cc3ccccc3)nc2s1	inactive: -11.2%
COC(=O)c1c(NC(=O)c2nc(SCc3ccc(F)cc3)ncc2Cl)sc2c1CCCC2	inactive: -2.52%
Cn1nnnc1SCCCNCc1cc(Cl)ccc1OCc1ccc(F)cc1	inactive: 18.1%
CC(C)NCCCC1(C(N)=O)c2ccccc2-c2ccccc21	inactive: -29%
CCNC(=O)/C=C/c1cccc(Br)c1	inactive: -18.2%
CCC1CN(C(=O)N2CCC(C(=O)Nc3ccccc3F)CC2)c2ccccc2O1 (centres undefined)	inactive: -11.6%
Cc1ccc(C)c(N2CCN(c3c(CN4CCCC4)c(=O)oc4ccccc34)CC2)c1	inactive: -57.6%
COc1ccccc1CNC(=O)c1ccc2nc(N3CCCCC3)sc2c1	inactive: 6.23%
COc1ccc(NC(=O)CN2C(=O)COc3ccc(S(=O)(=O)N4CCCCCC4)cc32)cc1	inactive: -20.8%

SMILES	activation
Cc1ccc(CCNC(=O)c2ccc3c(Cl)c4c(nc3c2)CCCC4)cc1	inactive: 36.8%
CCCC(=O)Nc1ccccc1OCc1cc(=O)n2cc(C)ccc2n1	inactive: -5.3%
Cc1ccc(-n2c(=O)cc(N3CCN(c4ccccc4Cl)CC3)[nH]c2=O)cc1	inactive: 1.97%
O=C(Nc1cccc(Cl)c1Cl)c1cc(S(=O)(=O)NCc2ccc3c(c2)OCO3)ccc1F	inactive: 40.9%
O=c1[nH]c(=O)n(C2CCCCC2)c(O)c1C1=Nc2ccccc2SC(c2ccccc2)C1 (centres undefined)	inactive: -3.51%
COc1ccc(OCC(=O)NCC(c2ccc(OC)cc2)N2CCCCC2)cc1 (centres undefined)	inactive: 0.752%
COc1ccc(C2C(C(=O)Nc3cccnc3)=C(C)Nc3nc(-c4ccccc4)nn32)cc1OC (centres undefined)	inactive: -32.1%
Cc1cccc(OCC(=O)N(Cc2ccc(C(C)(C)C)cc2)Cc2ccco2)c1	inactive: -4.17%
COc1ccccc1NC(=O)C1=C(C)Nc2nc(SCc3ccccc3Cl)nn2C1c1ccccn1 (centres undefined)	inactive: 0.737%
CN(C)c1ccc(/C=C/c2noc(-c3ccccc3O)n2)cc1	inactive: 0.753%
C[C@@H]1C(=O)NC2=Nc3cccc(Cl)c3CN21	inactive: -2.89%
O=c1c2ccccc2n2c(-c3ccc(Cl)cc3)nnc2n1CCc1ccccc1	inactive: 8.45%
Cc1ccc(C(c2cccc(Br)c2)c2c(C)[nH]c3ccccc23)s1 (centres undefined)	inactive: -40.8%
COc1cc(OC)cc(C(=O)N2CCN(C(=O)COc3ccccc3)CC2)c1	inactive: 7.92%
CC(C)c1ccc(NC(=O)C(C)N(c2ccccc2)S(C)(=O)=O)cc1 (centres undefined)	inactive: 37.1%
CSc1ccc(CCNS(=O)(=O)c2ccc3c(c2)C(C)(C)C(=O)N3C)cc1	inactive: -3.99%
CC(C)C(NS(=O)(=O)c1ccc2c(c1)oc(=O)n2C)C(=O)NCCc1ccccc1 (centres undefined)	inactive: -7.51%
COc1cc(OC)c(NC(=O)N2CC3CCCN3c3ccccc32)cc1Cl (centres undefined)	inactive: -14.2%
COc1ccc(-c2nc(CSc3nnc(C)n4c3cc3occc34)c(C)o2)cc1OC	inactive: -18.7%
CCc1ccc(-n2nc(C)c3c(C)cc(=O)n(CC(=O)Nc4ccc(C(C)=O)cc4)c32)cc1	inactive: -5.23%
Cc1ccc(C)c(CN2C(=O)c3ccccc3S(=O)(=O)c3ccc(C(=O)NCCCN4CCCC(C)C4)cc32)c1 (centres undefined)	inactive: -18.3%
